The results in this text go back to article PMC9911399, “Two distinct binding modes provide the RNA-binding protein RbFox with extraordinary sequence specificity”.

First the molecules themselves.
B1: AUUCAGA (DNA:RNA)
RNA: GGGAGACCGGAAUUCAGAUUGUCCAUUCAGAUUAAAUCCCGUCGUAGCCACCA
DNA 1: CAATCTGAATTCCGGTCTCCC
DNA 2: TGGTGGCTACGACGGGATT
B2: CUGGGGG (DNA:RNA)
RNA: B1 RNA with A25C, U27G, C28G, A29G, A31G
DNA 1: CAATCTGAATTCCGGTCTCCC
DNA 2: TGGTGGCTACGACGGGATT
B3: GAUCUUC (DNA:RNA)
RNA: B1 RNA with A25G, U26A, A29U, G30U, A31C
DNA 1: CAATCTGAATTCCGGTCTCCC
DNA 2: TGGTGGCTACGACGGGATT
B4: UGAUUCA (DNA:RNA)
RNA: B1 RNA with A25U, U26G, U27A, C28U, A29U, G30C
DNA 1: CAATCTGAATTCCGGTCTCCC
DNA 2: TGGTGGCTACGACGGGATT
B5: GGCUCUU (DNA:RNA)
RNA: GGGAGACCGGAAUUCAGAUUGUCCGGCUCUUUUAAAUCCCGUCGUAGCCACCA
DNA 1: CAATCTGAATTCCGGTCTCCC
DNA 2: TGGTGGCTACGACGGGATT
B6: CGAUGGA (DNA:RNA)
RNA: B1 RNA with A25C, U26G, U27A, C28U, A29G
DNA 1: CAATCTGAATTCCGGTCTCCC
DNA 2: TGGTGGCTACGACGGGATT
B7: ACGACGC (DNA:RNA)
RNA: B1 RNA with U26C, U27G, C28A, A29C, A31C
DNA 1: CAATCTGAATTCCGGTCTCCC
DNA 2: TGGTGGCTACGACGGGATT
B8: GCGUGUU (DNA:RNA)
RNA: B5 RNA with G26C, C27G, C29G
DNA 1: CAATCTGAATTCCGGTCTCCC
DNA 2: TGGTGGCTACGACGGGATT
B9: CGAGUUA (DNA:RNA)
RNA: B5 RNA with G25C, C27A, U28G, C29U, U31A
DNA 1: CAATCTGAATTCCGGTCTCCC
DNA 2: TGGTGGCTACGACGGGATT
B10: UCCGCGC (DNA:RNA)
RNA: B5 RNA with G25U, G26C, U28G, U30G, U31C
DNA 1: CAATCTGAATTCCGGTCTCCC
DNA 2: TGGTGGCTACGACGGGATT
B11: ACGAGGG (DNA:RNA)
RNA: B1 RNA with U26C, U27G, C28A, A29G, A31G
DNA 1: CAATCTGAATTCCGGTCTCCC
DNA 2: TGGTGGCTACGACGGGATT
B12: CUGGCAA (DNA:RNA)
RNA: B1 RNA with A25C, U27G, C28G, A29C, G30A
DNA 1: CAATCTGAATTCCGGTCTCCC
DNA 2: TGGTGGCTACGACGGGATT
B13: AUUCAAC (DNA:RNA)
RNA: B1 RNA with G30A, A31C
DNA 1: CAATCTGAATTCCGGTCTCCC
DNA 2: TGGTGGCTACGACGGGATT
B14: AACUACU (DNA:RNA)
RNA: B5 RNA with G25A, G26A, C29A, U30C
DNA 1: CAATCTGAATTCCGGTCTCCC
DNA 2: TGGTGGCTACGACGGGATT
B15: UACAGGA (DNA:RNA)
RNA: B1 RNA with A25U, U26A, U27C, C28A, A29G
DNA 1: CAATCTGAATTCCGGTCTCCC
DNA 2: TGGTGGCTACGACGGGATT
B16: GUCUCGA (DNA:RNA)
RNA: B5 RNA with G26U, U30G, U31A
DNA 1: CAATCTGAATTCCGGTCTCCC
DNA 2: TGGTGGCTACGACGGGATT
B17: UCUAUUC (DNA:RNA)
RNA: B1 RNA with A25U, U26C, C28A, A29U, G30U, A31C
DNA 1: CAATCTGAATTCCGGTCTCCC
DNA 2: TGGTGGCTACGACGGGATT
B18: UUAUGGG (DNA:RNA)
RNA: B1 RNA with A25U, U27A, C28U, A29G, A31G
DNA 1: CAATCTGAATTCCGGTCTCCC
DNA 2: TGGTGGCTACGACGGGATT
B19: GACCGCC (DNA:RNA)
RNA: B5 RNA with G26A, U28C, C29G, U30C, U31C
DNA 1: CAATCTGAATTCCGGTCTCCC
DNA 2: TGGTGGCTACGACGGGATT
B20: UCUCCAG (DNA:RNA)
RNA: B1 RNA with A25U, U26C, A29C, G30A, A31G
DNA 1: CAATCTGAATTCCGGTCTCCC
DNA 2: TGGTGGCTACGACGGGATT
B21: UCCGAGG (DNA:RNA)
RNA: B1 RNA with A25U, U26C, U27C, C28G, A31G
DNA 1: CAATCTGAATTCCGGTCTCCC
DNA 2: TGGTGGCTACGACGGGATT
B22: UACUAAA (DNA:RNA)
RNA: B1 RNA with A25U, U26A, U27C, C28U, G30A
DNA 1: CAATCTGAATTCCGGTCTCCC
DNA 2: TGGTGGCTACGACGGGATT
B23: CCUACUU (DNA:RNA)
RNA: B5 RNA with G25C, G26C, C27U, U28A
DNA 1: CAATCTGAATTCCGGTCTCCC
DNA 2: TGGTGGCTACGACGGGATT
B24: CACGCUA (DNA:RNA)
RNA: B5 RNA with G25C, G26A, U28G, U31A
DNA 1: CAATCTGAATTCCGGTCTCCC
DNA 2: TGGTGGCTACGACGGGATT
B25: UAACCGA (DNA:RNA)
RNA: B1 RNA with A25U, U26A, U27A, A29C
DNA 1: CAATCTGAATTCCGGTCTCCC
DNA 2: TGGTGGCTACGACGGGATT
B26: AGGGUCA (DNA:RNA)
RNA: B1 RNA with U26G, U27G, C28G, A29U, G30C
DNA 1: CAATCTGAATTCCGGTCTCCC
DNA 2: TGGTGGCTACGACGGGATT
B27: GCCUUUU (DNA:RNA)
RNA: B5 RNA with G26C, C29U
DNA 1: CAATCTGAATTCCGGTCTCCC
DNA 2: TGGTGGCTACGACGGGATT
B28: GACAUGG (DNA:RNA)
RNA: B5 RNA with G26A, U28A, C29U, U30G, U31G
DNA 1: CAATCTGAATTCCGGTCTCCC
DNA 2: TGGTGGCTACGACGGGATT
B29: GGCGUUA (DNA:RNA)
RNA: B5 RNA with U28G, C29U, U31A
DNA 1: CAATCTGAATTCCGGTCTCCC
DNA 2: TGGTGGCTACGACGGGATT
B30: CUUAUAC (DNA:RNA)
RNA: B1 RNA with A25C, C28A, A29U, G30A, A31C
DNA 1: CAATCTGAATTCCGGTCTCCC
DNA 2: TGGTGGCTACGACGGGATT
B31: GCCUCCG (DNA:RNA)
RNA: B5 RNA with G26C, U30C, U31G
DNA 1: CAATCTGAATTCCGGTCTCCC
DNA 2: TGGTGGCTACGACGGGATT

Residue numbers refer to the chain shown, from its start. The list shows a part of the results.

This experiment has as its target T1, RBFOX1 RRM RbFoxmut (Fox-RRM*) (Homo sapiens, UniProt Q9NWB1 109-208, R118D;E147R;N151S;E152T).
T1 sequence: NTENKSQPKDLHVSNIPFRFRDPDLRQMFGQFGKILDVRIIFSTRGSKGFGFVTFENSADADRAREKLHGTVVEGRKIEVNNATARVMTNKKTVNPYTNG
Nature of the experiment: EMSA; HiTS-Eq, 1 nM pool, 10 min; buffer printed only for the single-RNA assays: 10 mM Tris pH 7.5, 150 mM NaCl, 3.4 mM EDTA, 0.001% NP-40, 30 C. To be noted: tags: His6 N-terminal (pET28a); label: 5' 32P. The essentials: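 Purified RbFox RRM (wild type or mutant) was equilibrated for 10 min in 50 µL with 1 nM of a 5′-radiolabelled pool of RNA with 7 randomized nucleotides, its flanks annealed to DNA oligonucleotides, across increasing protein concentrations. Free RNA was separated by 8% native PAGE, excised, reverse-transcribed, PCR-barcoded and sequenced on an Illumina HiSeq 2500. Relative association constants came from read-count changes of each variant against the control reaction, normalised to the cognate motif.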
Turning to B1, the binding signal is 0.0812 KA relative to UGCAUGU.

In the case of B2, the binding signal was 0.0824 KA relative to UGCAUGU.

Take B3: the binding signal is 0.0558 KA relative to UGCAUGU.

In the case of B4, the binding signal is 0.126 KA relative to UGCAUGU.

Take B5: the binding signal was 0.0791 KA relative to UGCAUGU.

Take B6: the binding signal is 0.0893 KA relative to UGCAUGU.

As to B7, the binding signal is 0.104 KA relative to UGCAUGU.

Regarding B8, the binding signal was 0.156 KA relative to UGCAUGU.

On to B9, for which the binding signal was 0.109 KA relative to UGCAUGU.

As to B10, the binding signal is 0.0955 KA relative to UGCAUGU.

As to B11, the binding signal was 0.0724 KA relative to UGCAUGU.

Take B12: the binding signal was 0.0738 KA relative to UGCAUGU.

B13: the binding signal is 0.0828 KA relative to UGCAUGU.

B14: the binding signal was 0.115 KA relative to UGCAUGU.

For B15, the binding signal is 0.0714 KA relative to UGCAUGU.

Consider B16, for which the binding signal is 0.242 KA relative to UGCAUGU.

With B17, the binding signal was 0.0896 KA relative to UGCAUGU.

In the case of B18, the binding signal is 0.0747 KA relative to UGCAUGU.

B19: the binding signal is 0.0887 KA relative to UGCAUGU.

As for B20, the binding signal is 0.0963 KA relative to UGCAUGU.

On to B21, for which the binding signal is 0.0607 KA relative to UGCAUGU.

B22: the binding signal was 0.0846 KA relative to UGCAUGU.

Turning to B23, the binding signal is 0.0884 KA relative to UGCAUGU.

In the case of B24, the binding signal was 0.101 KA relative to UGCAUGU.

For B25, the binding signal is 0.0866 KA relative to UGCAUGU.

Turning to B26, the binding signal was 0.112 KA relative to UGCAUGU.

Take B27: the binding signal is 0.0724 KA relative to UGCAUGU.

B28: the binding signal is 0.139 KA relative to UGCAUGU.

B29: the binding signal was 0.118 KA relative to UGCAUGU.

In the case of B30, the binding signal is 0.102 KA relative to UGCAUGU.

B31: the binding signal was 0.0932 KA relative to UGCAUGU.
